Data from patent US11178870B2 (priority 2017, dated 2021).

Assays:
[1] = system: Phytophthora infestans; assay type: in vivo; settings: Late blight on tomato
[2] = system: Magnaporthe grisea; assay type: in vivo; settings: Blast on rice

SMILES | Test F control value [1] | Test A control value [2]
CN1C(=O)CCC(c2cccs2)=C1c1c(F)cccc1F [Compound 1] | L (L shows the control value of 50% or less) | H (H shows the control value more than 50%)
CN1C(=O)CCC(c2ccsc2)=C1c1c(F)cccc1F [Compound 3] | L (L shows the control value of 50% or less) | H (H shows the control value more than 50%)
CCN1C(=O)CCC(c2ccsc2)=C1c1c(F)cccc1F [Compound 4] | L (L shows the control value of 50% or less) | H (H shows the control value more than 50%)
CCn1c(-c2c(F)cc(F)cc2F)c(C2OCCO2)cc(Cl)c1=O [Compound 9] | L (L shows the control value of 50% or less) | H (H shows the control value more than 50%)
CCn1c(-c2c(F)cc(OC)cc2F)c(C2OCCCO2)cc(Cl)c1=O [Compound 10] | L (L shows the control value of 50% or less) | H (H shows the control value more than 50%)
CCn1c(-c2c(F)cccc2F)c(C2OCCCO2)cc(Cl)c1=O [Compound 11] | L (L shows the control value of 50% or less) | H (H shows the control value more than 50%)
CCn1c(-c2c(F)cc(OC)cc2F)c(C2OCCO2)cc(Cl)c1=O [Compound 12] | L (L shows the control value of 50% or less) | H (H shows the control value more than 50%)
CCn1c(-c2c(F)cccc2F)c(C2OCCO2)cc(Cl)c1=O [Compound 13] | L (L shows the control value of 50% or less) | H (H shows the control value more than 50%)
Cn1c(-c2c(F)cccc2F)c(-c2cccs2)ccc1=O [Compound 14] | L (L shows the control value of 50% or less) | L (L shows the control value of 50% or less)
Cn1c(-c2c(F)cccc2F)c(-c2ccsc2)ccc1=O [Compound 15] | L (L shows the control value of 50% or less) | L (L shows the control value of 50% or less)
CCn1c(-c2c(F)cccc2F)c(-c2ccsc2)ccc1=O [Compound 16] | L (L shows the control value of 50% or less) | L (L shows the control value of 50% or less)
CCn1c(-c2c(F)cc(F)cc2F)c(-c2nn(C)cc2C)cc(Cl)c1=O [Compound 19] | L (L shows the control value of 50% or less) | H (H shows the control value more than 50%)
CCn1c(-c2c(F)cc(F)cc2F)c(-c2c(Cl)cnn2C)cc(Cl)c1=O [Compound 22] | L (L shows the control value of 50% or less) | H (H shows the control value more than 50%)
CCn1c(-c2c(F)cc(OC)cc2F)c(-c2ccnn2C)cc(Cl)c1=O [Compound 28] | L (L shows the control value of 50% or less) | H (H shows the control value more than 50%)
CCn1c(-c2c(F)cc(OC)cc2F)c(-c2c(Cl)cnn2C)cc(Cl)c1=O [Compound 29] | L (L shows the control value of 50% or less) | H (H shows the control value more than 50%)
CCN1C(=O)CCC(n2cccn2)=C1c1c(F)cccc1F [Compound 30] | L (L shows the control value of 50% or less) | L (L shows the control value of 50% or less)
CCn1c(-c2c(F)cccc2F)c(-n2cccn2)ccc1=O [Compound 31] | L (L shows the control value of 50% or less) | L (L shows the control value of 50% or less)

SMILES | Test F control value [1] | Test A control value [2]
CCn1c(-c2ccc(F)cc2Cl)c(-c2cnco2)cc(Cl)c1=O [Compound 32] | L (L shows the control value of 50% or less) | L (L shows the control value of 50% or less)
CCn1c(-c2ccc(OC)cc2Cl)c(-c2cnco2)cc(Cl)c1=O [Compound 33] | L (L shows the control value of 50% or less) | H (H shows the control value more than 50%)
CCn1c(-c2c(F)cc(OC)cc2F)c(-c2cnco2)cc(Cl)c1=O [Compound 37] | L (L shows the control value of 50% or less) | H (H shows the control value more than 50%)
CCn1c(-c2ccc(F)cc2Cl)c(-c2ocnc2C)cc(Cl)c1=O [Compound 38] | L (L shows the control value of 50% or less) | H (H shows the control value more than 50%)
CCn1c(-c2ccc(OC)cc2Cl)c(-c2ocnc2C)cc(Cl)c1=O [Compound 39] | L (L shows the control value of 50% or less) | H (H shows the control value more than 50%)
CCn1c(-c2c(F)cccc2F)c(-c2cnco2)cc(Cl)c1=O [Compound 42] | L (L shows the control value of 50% or less) | L (L shows the control value of 50% or less)
CCn1c(-c2c(F)cccc2F)c(-c2ccsc2Br)ccc1=O [Compound 44] | L (L shows the control value of 50% or less) | H (H shows the control value more than 50%)
CCn1c(-c2c(F)cccc2F)c(-c2ccsc2Br)cc(Cl)c1=O [Compound 45] | L (L shows the control value of 50% or less) | H (H shows the control value more than 50%)
CCn1c(-c2c(F)cc(F)cc2F)c(-n2ncnc2Br)cc(Br)c1=O [Compound 46] | L (L shows the control value of 50% or less) | H (H shows the control value more than 50%)
CCn1c(-c2c(F)cc(F)cc2F)c(-n2cncn2)cc(Br)c1=O [Compound 47] | L (L shows the control value of 50% or less) | L (L shows the control value of 50% or less)
CCn1c(-c2c(F)cc(F)cc2F)c(-n2ncnc2I)cc(Cl)c1=O [Compound 48] | L (L shows the control value of 50% or less) | H (H shows the control value more than 50%)
CCn1c(-c2c(F)cccc2F)c(-c2ocnc2Br)cc(Cl)c1=O [Compound 49] | L (L shows the control value of 50% or less) | H (H shows the control value more than 50%)
CCn1c(-c2c(F)cccc2F)c(-c2ocnc2Cl)cc(Cl)c1=O [Compound 50] | L (L shows the control value of 50% or less) | H (H shows the control value more than 50%)
CCn1c(-c2c(F)cccc2F)c(-c2ocnc2F)cc(Cl)c1=O [Compound 51] | L (L shows the control value of 50% or less) | H (H shows the control value more than 50%)
CCn1c(-c2c(F)cccc2F)c(-n2cc(Cl)cn2)ccc1=O [Compound 52] | L (L shows the control value of 50% or less) | H (H shows the control value more than 50%)
CCn1c(-c2c(F)cccc2F)c(-n2cc(Cl)cn2)cc(Cl)c1=O [Compound 53] | L (L shows the control value of 50% or less) | H (H shows the control value more than 50%)
Cn1c(-c2c(F)cccc2F)c(-c2cccnc2Cl)cc(Cl)c1=O [Compound 105] | – | L (L shows the control value of 50% or less)
